This is one part of the list.
System: HepG2
Experiment: cytotoxicity call (relative viability < 0.9)
Settings: 10 µM

Row | SMILES | cytotoxicity call
1 | C/C=C/c1ccc([C@H]2[C@@H](CO)N(S(=O)(=O)Cc3ccccc3)C23CN(C(=O)C2CCOCC2)C3)cc1 | inactive
2 | C[C@@H]1CN([C@@H](C)CO)C(=O)c2cc(NC(=O)Nc3cccc4ccccc34)ccc2O[C@@H]1CN(C)C(=O)Nc1ccc(F)cc1 | inactive
3 | C[C@H]1CN([C@@H](C)CO)C(=O)c2cc(C#Cc3ccccc3F)cnc2O[C@H]1CN(C)C(=O)Cc1cccnc1 | inactive
4 | C[C@H]1CCCCO[C@@H](CN(C)C(=O)Nc2ccccc2)[C@@H](C)CN([C@@H](C)CO)C(=O)c2cc(NC(=O)NC3CCCCC3)ccc2O1 | inactive
5 | COc1ccc(S(=O)(=O)Nc2ccc3c(c2)C(=O)N([C@@H](C)CO)C[C@@H](C)[C@@H](CN(C)C(=O)Nc2cccc4ccccc24)OCCCC[C@@H](C)O3)cc1 | inactive
6 | C[C@@H]1CN([C@H](C)CO)C(=O)c2cc(NC(=O)CCCN(C)C)ccc2O[C@@H]1CN(C)S(=O)(=O)c1ccc(F)cc1 | inactive
7 | CCCC#Cc1ccc2c(c1)O[C@H](CN(C)Cc1ccc3c(c1)OCO3)[C@@H](C)CN([C@@H](C)CO)S2(=O)=O | inactive
8 | Cc1ccc(S(=O)(=O)N(C)C[C@H]2Oc3ccc(NS(=O)(=O)c4cn(C)cn4)cc3CC(=O)N([C@@H](C)CO)C[C@@H]2C)cc1 | inactive
9 | COCC(=O)N1C[C@H](C)[C@@H](OC)CN(C)C(=O)c2cc(NC(=O)Nc3cccc(F)c3)ccc2OC[C@@H]1C | inactive
10 | C[C@@H]1CN([C@H](C)CO)C(=O)c2cc(NC(=O)NC3CCCCC3)ccc2O[C@@H](C)CCCCO[C@H]1CN(C)C(=O)Nc1ccc2c(c1)OCO2 | inactive
11 | Cc1ccc(S(=O)(=O)N(C)C[C@H]2Oc3ccc(NS(C)(=O)=O)cc3C(=O)N([C@@H](C)CO)C[C@@H]2C)cc1 | inactive
12 | C[C@H]1CN([C@@H](C)CO)C(=O)CCCn2nncc2CO[C@H]1CN(C)C(=O)C1CC1 | inactive
13 | Cc1ccc(S(=O)(=O)Nc2ccc3c(c2)C(=O)N([C@@H](C)CO)C[C@@H](C)[C@H](CN(C)S(C)(=O)=O)OCCCC[C@@H](C)O3)cc1 | inactive
14 | COc1cccc(C#Cc2ccc3c(c2)O[C@@H](CN(C)C(=O)CN2CCOCC2)[C@H](C)CN([C@@H](C)CO)S3(=O)=O)c1 | inactive
15 | C[C@H](CO)N1C[C@H](C)[C@@H](CN(C)Cc2ccc(-c3ccccc3)cc2)Oc2ccc(NC(=O)NC3CCCCC3)cc2CC1=O | inactive
16 | CC(=O)c1c(O)c(C)c(O)c2c1OC1=CC(=O)C(C(C)=O)C(=O)C12C (centres undefined) | inactive
17 | Cc1noc(C)c1NC(=O)N(C)C[C@@H]1Oc2c(NS(=O)(=O)c3cn(C)cn3)cccc2C(=O)N([C@@H](C)CO)C[C@H]1C | inactive
18 | C[C@H](CO)N1C[C@H](C)[C@H](CN(C)Cc2ccccc2F)Oc2cc(C#CC3CC3)ccc2S1(=O)=O | inactive
19 | COc1cccc(NC(=O)N[C@H]2C=C[C@@H](CC(=O)N3CCOCC3)O[C@@H]2CO)c1 | inactive
20 | COc1ccccc1C#Cc1cnc2c(c1)C(=O)N([C@@H](C)CO)C[C@@H](C)[C@@H](CN(C)C(=O)c1ccc3c(c1)OCO3)O2 | inactive
21 | COc1ccc(S(=O)(=O)N2C[C@H](O)COC[C@H]3O[C@H](CC(=O)N[C@@H]4CCN(Cc5ccccc5)C4)CC[C@@H]32)cc1 | inactive
22 | CCCC(=O)N1CC[C@]2(CC1)CN([C@H](CO)c1c2c2ccc(cc2n1C)OC)C(=O)CN1CCOCC1 | inactive
23 | C[C@H](CO)N1C[C@H](C)[C@@H](CN(C)C(=O)CN(C)C)Oc2cc(C#CCC3CCCC3)ccc2S1(=O)=O | inactive
24 | CO[C@H]1CN(C)C(=O)c2cc(NS(=O)(=O)c3ccccc3)ccc2OC[C@H](C)N(C(=O)NC(C)C)C[C@H]1C | inactive
25 | COCC(=O)N1C[C@@H](C)[C@H](OC)CN(C)C(=O)c2ccc(NC(=O)Nc3ccccc3)cc2OC[C@@H]1C | inactive
26 | C[C@@H]1CN([C@H](C)CO)C(=O)Cc2cc(NC(=O)Cn3cnnn3)ccc2O[C@H]1CN(C)C(=O)NC1CCCCC1 | inactive
27 | C[C@@H]1CN([C@H](C)CO)S(=O)(=O)c2ccc(Br)cc2O[C@H]1CN(C)S(=O)(=O)c1ccccc1 | inactive
28 | Cc1noc(C)c1S(=O)(=O)Nc1ccc2c(c1)CC(=O)N([C@H](C)CO)C[C@@H](C)[C@@H](CN(C)Cc1ccncc1)O2 | inactive
29 | COCC(=O)N1C[C@@H](C(=O)N2CCCO2)C[C@@H]2OCC[C@@H]21 | inactive
